Source: the supplement of paper PMC12217912
The list shows a part of the results. Sequences were assembled here from the parent chain. Values near 0.05 are background.

B1: TEV protease; numbered along this chain (parent)
chain: MGESLFKGPRDYNPISSSICHLTNESDGHTTSLYGIGFGPFIITNKHLFRRNNGTLVVQSLHGVFKVKDTTTLQQHLVDGRDMIIIRMPKDFPPFPQKLKFREPQREERICLVTTNFQTKSMSSMVSDTSCTFPSGDGIFWKHWIQTKDGQCGSPLVSTRDGFIVGIHSASNFTNTNNYFTSVPKNFMELLTNQEAQQWVSGWRLNADSVLWGGHKVFMVKPEEPFQPVKEATQL

Variants of: B1
Test: raw area under fraction-flipped curve 0-4 h after induction (AUC4h, not background-subtracted), DNA-recorder readout of cleavage of the substrate (dimensionless); higher = more cleavage of the substrate by the protease variant
Conditions: temperature: 34 °C; time window: 0-4 h after rhamnose induction
Protocol: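 In vivo DNA recorder in E. coli TOP10(DE3) ΔrhaA at 34 °C. Each TEVp single-site mutant (parent TEVp 0) is paired with a single-site variant of the 7-mer TEVs (canonical ENLYFQ|S). The substrate sits between flexible linkers in a Bxb1-sfGFP-TEVs-SsrA fusion, so cleavage stabilises Bxb1 and speeds flipping of a recombination array, read by NGS. The value is the raw area under the fraction-flipped curve over 0-4 h after rhamnose induction (AUC4h), with ≥20 reads per time point. It is not background-subtracted; inactive controls average about 0.047.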
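Also: Bxb1 expression induced with 0.2% (w/v) L-rhamnose at OD600 near 0.5, cultures sampled hourly, flipped fraction per protease–substrate barcode pair counted by paired-end Illumina sequencing.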

| Variant | area with substrate CNLYFQS | area with substrate GNLYFQS | area with substrate HNLYFQS | area with substrate INLYFQS | area with substrate KNLYFQS | area with substrate LNLYFQS | area with substrate MNLYFQS | area with substrate NNLYFQS | area with substrate PNLYFQS | area with substrate SNLYFQS | area with substrate TNLYFQS | area with substrate VNLYFQS | area with substrate WNLYFQS | area with substrate YNLYFQS | area with substrate FNLYFQS | area with substrate QNLYFQS | area with substrate DNLYFQS | area with substrate RNLYFQS |
| --- | --- | --- | --- | --- | --- | --- | --- | --- | --- | --- | --- | --- | --- | --- | --- | --- | --- | --- |
| T71F | 0.0876 | 0.0687 | 0.066 | 0.0636 | 0.059 | 0.0482 | 0.058 | 0.0581 | 0.0656 | 0.0479 | 0.0699 | 0.0545 | 0.0499 | 0.0513 | – | – | – | – |
| T71A | 0.0595 | – | 0.0526 | 0.0835 | – | 0.0672 | 0.053 | – | 0.068 | 0.0671 | 0.0607 | – | 0.0619 | 0.0698 | 0.06 | 0.0625 | – | – |
| H62N | 0.0474 | 0.0872 | 0.0638 | – | – | 0.0606 | – | – | 0.0739 | – | 0.0794 | – | 0.0742 | 0.0439 | – | 0.0768 | 0.0873 | – |
| N53G | 0.0628 | 0.0835 | 0.0615 | 0.0688 | 0.0692 | 0.0653 | – | – | 0.0604 | – | 0.0675 | 0.0412 | 0.0585 | 0.0535 | 0.0535 | – | – | 0.0576 |
| N53A | 0.0687 | 0.049 | 0.0584 | 0.0575 | – | 0.0591 | 0.064 | – | 0.0568 | – | 0.0591 | 0.0763 | 0.0629 | 0.0801 | 0.0436 | – | – | 0.0563 |
| L48H | 0.0636 | – | 0.0642 | – | – | 0.0695 | 0.0666 | 0.0654 | 0.0633 | 0.0543 | – | 0.0714 | – | 0.0574 | – | 0.0466 | – | – |
| R50L | 0.0747 | 0.0578 | 0.0571 | – | 0.054 | – | – | – | 0.0587 | 0.0482 | 0.0601 | 0.056 | 0.0827 | 0.0586 | 0.0499 | – | – | 0.0695 |
| I42G | 0.0302 | 0.0441 | 0.0475 | 0.0373 | 0.0355 | 0.0427 | 0.0453 | – | 0.0515 | 0.0499 | 0.0463 | 0.043 | 0.0375 | – | 0.0428 | 0.0393 | – | – |
| I42W | 0.0581 | 0.0548 | 0.0485 | 0.0412 | 0.0504 | 0.0509 | 0.0573 | – | 0.0695 | 0.0529 | 0.0536 | 0.0761 | 0.0453 | 0.0474 | 0.0546 | 0.0469 | – | – |
| I42D | 0.044 | – | 0.0489 | – | – | 0.0298 | – | – | 0.0451 | 0.0416 | 0.0284 | – | 0.0397 | 0.0668 | – | – | – | – |
| V57K | 0.0731 | – | 0.069 | 0.062 | – | 0.0489 | – | 0.0604 | 0.0603 | 0.0358 | 0.066 | – | 0.0617 | 0.0607 | – | – | – | – |
| V57T | 0.0689 | – | – | 0.0508 | – | – | 0.0601 | 0.0655 | – | 0.0749 | 0.0733 | – | 0.0507 | 0.0732 | 0.0681 | – | – | – |
| V57M | 0.0712 | 0.0635 | 0.0659 | 0.0628 | 0.0666 | 0.0578 | 0.0717 | – | 0.0754 | 0.0681 | 0.0757 | 0.0659 | 0.0618 | 0.0385 | – | – | – | 0.0543 |
| V57Y | 0.0605 | – | 0.066 | 0.056 | 0.042 | – | 0.0401 | – | 0.0618 | 0.055 | 0.0641 | – | – | 0.0484 | – | – | – | – |
| K66R | 0.0741 | – | 0.062 | – | 0.0557 | – | – | 0.0643 | 0.0636 | 0.0721 | 0.0642 | – | 0.0423 | 0.0382 | – | – | – | 0.0871 |
| K66F | 0.0561 | 0.0822 | 0.0422 | 0.0771 | 0.0738 | 0.0648 | 0.0513 | 0.0675 | 0.0701 | – | 0.0476 | 0.0721 | 0.0694 | 0.0726 | 0.0671 | 0.0711 | – | 0.0552 |
| R51M | 0.0673 | – | 0.0631 | 0.0675 | 0.1 | 0.0645 | 0.0737 | 0.076 | 0.0496 | – | 0.0659 | – | 0.053 | 0.0632 | 0.0719 | – | – | – |
| R51C | 0.0581 | 0.0689 | 0.065 | – | 0.0958 | 0.0607 | 0.0615 | 0.0647 | 0.0598 | 0.0682 | 0.0632 | – | 0.0625 | 0.0681 | 0.0682 | – | – | – |
| Q74D | 0.0676 | 0.0696 | 0.0454 | 0.0612 | 0.067 | 0.066 | 0.0715 | – | 0.0445 | 0.0562 | 0.0747 | 0.0685 | 0.115 | 0.072 | 0.077 | – | – | 0.0615 |
| Q74H | 0.0782 | – | – | 0.0619 | 0.0624 | 0.0597 | 0.0566 | – | – | – | 0.0584 | 0.0612 | – | – | – | – | 0.065 | – |
| Q74G | 0.0903 | 0.0634 | 0.0645 | 0.0569 | 0.0573 | 0.0693 | – | 0.0752 | 0.0655 | 0.0643 | 0.0718 | 0.068 | 0.0641 | 0.0537 | – | – | – | 0.0488 |
| V64N | 0.0707 | 0.0696 | 0.0627 | 0.0679 | 0.0844 | – | 0.0644 | 0.0733 | 0.0589 | 0.067 | 0.0647 | 0.0602 | 0.0633 | 0.049 | 0.0572 | – | – | – |
| N45Q | 0.0536 | 0.0508 | 0.0598 | 0.0561 | 0.0852 | 0.058 | 0.0379 | 0.0528 | 0.0638 | 0.0588 | 0.0576 | 0.0536 | – | – | 0.0623 | – | – | – |
| N45S | 0.0686 | – | 0.0537 | 0.0555 | 0.0666 | 0.0554 | 0.0573 | 0.0772 | 0.0693 | 0.051 | – | – | 0.0548 | 0.0575 | 0.061 | – | – | – |
| N45D | 0.0454 | 0.0553 | 0.0611 | 0.0534 | 0.0658 | 0.0592 | 0.0471 | 0.0534 | 0.0617 | 0.0589 | 0.0574 | 0.0491 | 0.0534 | 0.0468 | – | – | – | – |
| T44L | 0.055 | 0.0591 | 0.0461 | 0.0465 | 0.0629 | 0.0558 | 0.0434 | 0.0545 | 0.0505 | 0.0593 | 0.0492 | 0.0578 | 0.0323 | 0.0568 | 0.0619 | – | – | – |
| T44Q | 0.0534 | 0.0358 | 0.0378 | 0.0379 | 0.004 | 0.0502 | – | 0.0184 | 0.0457 | 0.041 | 0.0477 | 0.0378 | 0.0515 | 0.062 | – | 0.0444 | – | – |
| I43V | 0.0709 | – | 0.0623 | 0.0539 | – | 0.0605 | 0.054 | 0.0552 | – | – | 0.0826 | – | 0.0516 | 0.0802 | 0.0651 | – | – | – |
